To fix the notation:
B1: LINE1-full (parent)
chain: UACGUAGGUGGUUUUCCCCUGAUAGUGCUAAGGGGGCCUGGAAGUUUGGACUGGGCAGAGCUCAACACAGCGUGGCAAAGUGGCUGUGGCUAGACUGCCUCUCUGGAUUCCUCGUCACUCAGCAGGGCAUCUCUGAGAGAAAUGCC

Read counts are not given, so values of variants with three or more changes are uncertain.

Variants of B1 are the subject of this data set. The experiment in a line: self-cleavage, relative activity (ratio to wild type); higher = more cleavage; in vitro, sequencing; the parent is a self-cleaving ribozyme.
In the case of U14C U23C A31G A78G U143A, the self-cleavage turned out to be 1.47.

Regarding U14C A57G A107U, the self-cleavage stood at 0.34.

In the case of U14C C90U A124G A142G, the self-cleavage worked out at 0.24.

On to U14A A138G A142C, for which the self-cleavage is 1.29.

On to U14C G25A A64G, for which the self-cleavage was 0.37.

With U14C A31U A57U U85A A129G, the self-cleavage came to 0.19.

Take U14C A22U G55A: the self-cleavage was determined as 0.2.

Take U14C G32A A43G: the self-cleavage came to 1.39.

In the case of U14C A42U A59G, the self-cleavage stood at 0.17.

On to U14C A24G U52C U102C, for which the self-cleavage worked out at 1.84.

In the case of U14C U26C C37U U104A A136G, the self-cleavage was 1.94.

With U14C A59G U134C, the self-cleavage stood at 0.

U14C U23C A136G: the self-cleavage turned out to be 1.51.

Turning to U14C A57U U104A, the self-cleavage was 0.04.

Take U14C A30G U85A A136C: the self-cleavage was 0.09.

As for U14C U20C G72A A94G A136U, the self-cleavage came out at 0.33.

For U14C A42U A65G U115C, the self-cleavage came out at 0.

In the case of U14C U39C A57U U130C U132A, the self-cleavage was 0.

As to U14C A42G A92G A117U U132C, the self-cleavage amounted to 0.28.

For the variant U14C U15A G105A A138G A141G, the self-cleavage was 0.71.

As to U14C A24U U46C U104A U143C, the self-cleavage came to 0.45.

In the case of U14A A24G G55C U62C A78G, the self-cleavage came out at 0.14.

Turning to U14C A78U U143C, the self-cleavage amounted to 0.61.

Consider U14C A22U A117U, for which the self-cleavage was 0.28.

Turning to U14A A59U U130A, the self-cleavage amounted to 0.99.

Take U14C U39A A59G: the self-cleavage came out at 0.09.

As to U14C G25A A67U A124C A129G U130C, the self-cleavage stood at 0.

For the variant U14A U15C G48A, the self-cleavage amounted to 0.18.

With U14A U46C A50G, the self-cleavage worked out at 0.59.

For U14C U15C A77U A79G C101A, the self-cleavage is 1.15.

Turning to U14C A57U U73A, the self-cleavage is 0.08.

Regarding U14C C113U C116U, the self-cleavage is 1.59.

As for U14C U45C G54A A78G, the self-cleavage was determined as 0.19.

For U14C G33U U96C, the self-cleavage was determined as 0.22.

As for U14C A64G A77U U134C A142G, the self-cleavage came to 0.32.

As to U14A G36C U96C, the self-cleavage turned out to be 0.18.

Take U14C G88C A136G: the self-cleavage was 0.13.

On to U14C U26C U29C U39A, for which the self-cleavage was found to be 0.89.

As to U14C U29C A78G G86A, the self-cleavage amounted to 0.25.

For the variant U14A A43G C90A U112C A136G, the self-cleavage was determined as 0.07.

Regarding U14C A78G U87A, the self-cleavage was 0.06.

Turning to U14C A64U A69G U143C, the self-cleavage was determined as 0.28.

As for U14C A64U A67G A79U, the self-cleavage is 0.21.

Consider U14C U15C U115A C120U, for which the self-cleavage was 1.34.

For U14C A50G G83A, the self-cleavage stood at 0.45.

Take U14C G32A U47C A69G U143A: the self-cleavage is 0.

With U14C U47C U73A C116U, the self-cleavage is 1.2.

As for U14A U15A C61U A78C A107G, the self-cleavage turned out to be 0.12.

As for U14A U15C U52A U143C, the self-cleavage came out at 0.86.

For U14C U52C A59G U62C U132C, the self-cleavage was found to be 0.

Take U14C C56A A57G U91A C113U A121C: the self-cleavage was determined as 0.07.

Regarding U14C U87A A94G U104C, the self-cleavage came out at 0.

As for U14A U20C G34U U39C U115C, the self-cleavage was found to be 0.

In the case of U14C U73C C101A, the self-cleavage was 0.97.

In the case of U14C U26C U108C, the self-cleavage came to 0.

As for U14C U85A U108C U130C U134A, the self-cleavage is 0.12.

Regarding U14C U46G U62C A78G U85C, the self-cleavage was 0.

Consider U14C U39A G97A, for which the self-cleavage is 0.22.

U14C U23C U39C G40U U47A: the self-cleavage worked out at 0.74.

As for U14A G21A U134C, the self-cleavage turned out to be 0.12.

In the case of U14C U26A C76A A138G, the self-cleavage was found to be 0.57.

In the case of U14C U20C U119A A129U, the self-cleavage came to 1.44.

As to U14C A22G U100C, the self-cleavage was determined as 0.97.

U14C A69U A77G G93A: the self-cleavage was determined as 0.

As for U14C A69G C146U, the self-cleavage was 0.28.

For U14C U45C A77U, the self-cleavage worked out at 0.

U14C U39C U100C G114C A140G: the self-cleavage is 1.57.

In the case of U14C A30G A69G A129C, the self-cleavage is 0.

With U14C U45C U85C C101A U108C, the self-cleavage came to 0.42.

U14C U52C U62C U112C U143C: the self-cleavage is 0.

U14C U45C U112A G114A U143C: the self-cleavage is 1.23.

On to U14C G32A U62C U100C, for which the self-cleavage was determined as 0.16.

U14C U85C U112A A124G: the self-cleavage turned out to be 0.27.

Consider U14C A31U U81C A140G, for which the self-cleavage was 0.86.

With U14C G105A A121G, the self-cleavage worked out at 1.65.

Regarding U14A A78G A79G U115A, the self-cleavage was determined as 0.13.

For U14C U20G C56U A57U A124G A136G, the self-cleavage came to 0.26.

As to U14C U47C A50G, the self-cleavage is 1.84.

As to U14C U26C U85A A94G U119C, the self-cleavage was 0.

Consider U14C A24G U96C U143G, for which the self-cleavage turned out to be 0.

U14A A65U A117G: the self-cleavage was found to be 0.37.

As for U14C C38U U46C U119A A136G, the self-cleavage worked out at 1.18.

For the variant U14C A24G A31G A92G, the self-cleavage came to 1.02.

Turning to U14C A42G A78G, the self-cleavage came to 2.66.

On to U14C U46C A117C, for which the self-cleavage is 1.38.

For the variant U14C U29C C37A U39A U109C A138G, the self-cleavage was 1.19.

Turning to U14C G33C U47C A69U, the self-cleavage stood at 0.

For the variant U14A U62C A78U A141G, the self-cleavage stood at 0.07.

Take U14C C118U A138G: the self-cleavage stood at 0.89.

For U14A A59G A64G A129C, the self-cleavage amounted to 0.

As for U14C A77U C103A, the self-cleavage stood at 1.61.

As for U14C U23C U29C A43G, the self-cleavage is 1.6.

In the case of U14A U45C U46C U85A U134C A136G, the self-cleavage is 0.

U14C A30U U102C: the self-cleavage came to 1.34.

For the variant U14C U46C U100C U104C, the self-cleavage stood at 1.45.

For U14C A43G A129C, the self-cleavage is 0.84.

Consider U14C C18A U102C A142G C145U, for which the self-cleavage turned out to be 0.66.

As for U14C A78G A138G, the self-cleavage came out at 0.94.

On to U14C A65G A124U U130A C131A, for which the self-cleavage amounted to 0.19.

Take U14C C38G U45A A64G: the self-cleavage came to 0.39.

As to U14C U20C U52G, the self-cleavage stood at 1.02.

Turning to U14C A50U G105A A117G A124U G125A G135A, the self-cleavage was found to be 1.31.

For the variant U14A U39A A43G U47C, the self-cleavage worked out at 0.97.

With U14A C19U U39C, the self-cleavage came to 0.43.

In the case of U14C A107G G122A G139A, the self-cleavage stood at 1.56.

Turning to U14C A79G A121G, the self-cleavage stood at 1.64.

Turning to U14C U81A U85A, the self-cleavage worked out at 0.17.

Turning to U14C A22G U47A, the self-cleavage is 1.33.

U14C U26C G27U: the self-cleavage is 0.89.

For U14C A43G U109A A141G, the self-cleavage came to 1.18.

For U14C A22U U104A U108C A138G, the self-cleavage was 1.69.

On to U14A A50G A77G A92G, for which the self-cleavage is 1.08.

Take U14C U23C U39C G58A A141G: the self-cleavage is 0.07.

For U14C A94G A117U A141G, the self-cleavage came to 0.44.

Take U14C U29C A78G: the self-cleavage was 0.87.

As to U14C U23C U132A, the self-cleavage was 0.92.

For U14C U87C A124G, the self-cleavage was found to be 0.19.

With U14C U46C G125U, the self-cleavage was determined as 0.

With U14C C17A A22G C61U U132C, the self-cleavage is 0.2.

For U14A U73A U109G, the self-cleavage came out at 0.31.

For U14C G48A A67G A141G, the self-cleavage amounted to 0.

Turning to U14C U46C A57C U91C, the self-cleavage came to 0.

Regarding U14C U52A A136U, the self-cleavage was 1.5.

In the case of U14C U62G U130C, the self-cleavage came out at 0.

As for U14C A65G G72A U73A U109C, the self-cleavage came to 0.06.

As for U14C A43G U81G, the self-cleavage was determined as 0.63.

Take U14C U62A C146U: the self-cleavage was 0.14.

In the case of U14C C37U U87C, the self-cleavage was 0.17.

As for U14C A42G U87G U96A, the self-cleavage was found to be 0.11.

With U14A U109C A138G, the self-cleavage came out at 0.68.

In the case of U14C U85C A138G, the self-cleavage stood at 0.44.

Regarding U14A A69G A140C, the self-cleavage stood at 0.

For the variant U14C G32A G34A A79G C101U, the self-cleavage came out at 0.76.

Take U14C A79C A121U: the self-cleavage worked out at 1.69.

Turning to U14C U52A U100C U102A U134C A136U A140G, the self-cleavage came out at 2.63.

U14C A121U A124U: the self-cleavage worked out at 1.14.

Regarding U14C A24G C146A, the self-cleavage is 1.34.

Turning to U14C U20G U62A A107G, the self-cleavage was determined as 0.08.

Consider U14C U47C A77G U112C, for which the self-cleavage was 1.41.

For the variant U14C U39A U46C A78G, the self-cleavage was 1.36.

As for U14A A64U A121G, the self-cleavage is 0.23.

Regarding U14C U45C U87A A117G, the self-cleavage was determined as 0.14.

For U14C G36A A92G U102C, the self-cleavage was determined as 0.16.

Consider U14C A22G U52A A57G U115C A141G, for which the self-cleavage was 0.

Consider U14C A94G U109A, for which the self-cleavage is 0.14.

As to U14A G32A U45C U102C G114C A124G, the self-cleavage worked out at 0.94.

For the variant U14C U45A A67G, the self-cleavage came to 0.6.

As for U14C A57G A67C A79G A141G, the self-cleavage was found to be 0.

As to U14C C66U U96C A117C, the self-cleavage amounted to 0.07.

For the variant U14A U46C A64G, the self-cleavage is 1.31.

As for U14C U29A U46C A124G, the self-cleavage is 1.12.

Take U14C U91G U108C: the self-cleavage was determined as 0.

Consider U14C A117G A136U, for which the self-cleavage is 0.88.

Consider U14C U87C G137A, for which the self-cleavage turned out to be 0.13.

On to U14C G32A U39G U112A, for which the self-cleavage was found to be 1.71.

As to U14C A65G G137U A141G, the self-cleavage is 0.1.

On to U14C G34A U81C U108C, for which the self-cleavage was 1.74.

In the case of U14C U47A A78G, the self-cleavage is 1.5.

As for U14A A30G U39A A50G G54A A69G, the self-cleavage was determined as 0.

With U14C U45C U100G, the self-cleavage was 1.41.

For U14C U96C U108C, the self-cleavage is 0.28.

Take U14C A30U U87C U96C: the self-cleavage is 0.

Consider U14C A77U A138G A140G, for which the self-cleavage worked out at 1.29.

For the variant U14C U45C U119C A124G, the self-cleavage was determined as 0.48.

As to U14C A30G G126U, the self-cleavage was 0.81.

Regarding U14A A57G U85C, the self-cleavage is 0.26.

For U14C G27A A64C C84U U85C, the self-cleavage is 0.
